The full ranking holds about 33,000 sequences; the median of “E-score (-0.5 to 0.5)” is about -0.017, and the highest 2% start at about 0.3. Some of the results follow.
The sequences below were run against T1, Sut1 (UniProt P53032) (assay: PBM E-score (8-mer binding enrichment) (E-score (-0.5 to 0.5)); higher = stronger / more preferred TF binding; most listed sequences are background and not binding sites). Settings: protein concentration: 200 nM; construct: GST-full length.
T1 sequence: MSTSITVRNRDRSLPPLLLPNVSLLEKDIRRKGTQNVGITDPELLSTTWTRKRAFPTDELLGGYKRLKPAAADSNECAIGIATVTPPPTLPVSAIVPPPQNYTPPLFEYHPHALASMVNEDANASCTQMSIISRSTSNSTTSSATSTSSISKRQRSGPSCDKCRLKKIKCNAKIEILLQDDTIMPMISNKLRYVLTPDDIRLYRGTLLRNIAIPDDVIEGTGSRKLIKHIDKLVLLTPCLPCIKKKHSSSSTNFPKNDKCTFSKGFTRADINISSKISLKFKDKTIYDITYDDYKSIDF
Summary of the method: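 The E-score, a modified Wilcoxon-Mann-Whitney statistic, was computed by the Universal PBM Analysis Suite for every ungapped eight-base word pooled with its reverse complement. Scans behind it were normalised with masliner after bound GST-tagged yeast transcription factors were detected with fluorescent anti-GST. The proteins, at about 100-200 nM, had been applied to universal all-10-mer Agilent arrays made double-stranded by primer extension.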

Row | Sequence | PBM E-score
1 | CCCATGCG | -0.249
2 | TATATCAA | 0.284
3 | CGCCTAAA | -0.0163
4 | AGGTCAGC | 0.0462
5 | AAGATTTA | 0.0965
6 | AGTACGTC | 0.0481
7 | ATAGATCG | 0.0745
8 | CACGCAGC | -0.188
9 | AATACTTG | -0.0125
10 | CTCTAAAA | 0.11
11 | CAAGTTAG | 0.12
12 | CCGTTGTA | 0.191
13 | GCGTGTAC | -0.272
14 | CCACGCGC | -0.181
15 | GAGTTTCA | 0.137
16 | GATTTCGC | 0.289
17 | ATTGATCA | -0.0122
18 | AGTGACCC | -0.176
19 | CGCGATTA | 0.0599
20 | CCCAAACA | 0.00961
21 | AATATCGC | 0.15
22 | CTTTTTCC | 0.0159
23 | CCGCCACA | -0.161
24 | AGATATAT | 0.301
25 | GGTAGAAA | -0.0374

Row | Sequence | PBM E-score
26 | GCATCTCC | 0.0242
27 | CGCCAACC | -0.0697
28 | AGCGAAAC | 0.222
29 | ACACTCTC | 0.0313
30 | AGGGTATC | -0.104
31 | AACACGTC | -0.0271
32 | AACAACCT | -0.0575
33 | GGACAATA | 0.159
34 | ATAGCGGA | 0.172
35 | CTAGCTTA | 0.115
36 | AGCGGAAC | -0.0608
37 | GACAGCGC | -0.0578
38 | CCTTGCCG | -0.124
39 | ACTCGAGG | -0.124
40 | AGAAAAAT | 0.28
41 | AGGTCTGA | -0.095
42 | AGCAGTGG | -0.175
43 | GACGGAAC | -0.0244
44 | TTATCCAA | 0.3
45 | AACGCCGA | 0.139
46 | CTGCGACC | -0.26
47 | GTTAGTGA | 0.0292
48 | AGAATTGA | 0.0242
49 | AAAGTCGG | 0.0971
50 | ACGTGTGC | -0.409

Row | Sequence | PBM E-score
51 | AAGAGGCA | -0.0785
52 | GTTGTATA | 0.131
53 | AAGTAGCT | -0.0847
54 | AGAACAAG | 0.104
55 | AATGATCC | 0.0339
56 | AGTTAGAG | 0.0352
57 | CTGTTTCC | -0.0762
58 | CACGTGCC | -0.186
59 | CCAAGCAA | -0.15
60 | AAAAATGT | 0.202
61 | AGACTCTG | -0.137
62 | CCTGTAAC | -0.12
63 | GCCATAGC | -0.25
64 | AAATCATC | 0.188
65 | AGGAAATC | 0.0669
66 | CCACAAAA | 0.0574
67 | ACGTTGCG | 0.0202
68 | CCCAACAC | -0.157
69 | CACTATGA | -0.0253
70 | ACTATAAT | 0.224
71 | ACTTCGGC | 0.14
72 | ATCAAACG | 0.132
73 | GCGATCGA | 0.0863
74 | GCTAATTA | 0.148
75 | ATCCCGAT | 0.0315

Row | Sequence | PBM E-score
76 | ATTGAAAA | 0.213
77 | ACCCTTCC | -0.0492
78 | CAGATTCA | -0.0309
79 | GTGGTAAA | 0.128
80 | GATTCTGC | -0.0953
81 | CCAACTAA | 0.22
82 | CCAGAATA | 0.105
83 | AAAAACTC | 0.211
84 | AACATCTA | 0.0446
85 | ACCGTGCA | -0.0643
86 | CCACTTCA | -0.0819
87 | CACGGTCC | -0.227
88 | ATTACTGC | 0.0981
89 | AGCTCCCA | -0.15
90 | GTAGAGAA | -0.0104
91 | ACGCCCAT | -0.0055
92 | CATCAGAC | -0.167
93 | CACTATTA | 0.0757
94 | CGGTTTAA | 0.0957
95 | CGTTAGGA | -0.0176
96 | GCAGAAAA | 0.119
97 | CCATGAGG | -0.24
98 | CGATATTA | 0.271
99 | ACCCATGG | -0.31
100 | CTTTAGCA | -0.158

Row | Sequence | PBM E-score
101 | CGGAAGAC | 0.162
102 | AAGTTGGA | 0.0731
103 | ACATGTGG | -0.0327
104 | GCCTTAAA | 0.0657
105 | CGCGGCCC | 0.0122
106 | GAGCTGAC | 0.15
107 | CTTTCATC | -0.0675
108 | TCATACGA | 0.103
109 | AGCTTCGA | -0.0617
110 | AGGATTCG | 0.00593
111 | CATGAGTA | -0.0232
112 | ACTGTCTC | -0.00926
113 | TCTGGACA | -0.174
114 | ATTGTGCG | -0.185
115 | ACAGAGCG | -0.205
116 | ACTTAAGT | 0.0916
117 | CATTACCG | 0.0505
118 | CGATTAAC | -0.0902
119 | GAGGGGAC | -0.269
120 | ACACATCA | 0.033
121 | ACAGACCG | -0.129
122 | CCCGTCTA | -0.053
123 | ACATAACA | 0.221
124 | AGGTGACA | -0.0665
125 | AATGGCAG | -0.159

Row | Sequence | PBM E-score
126 | AGTCACCA | -0.0604
127 | ATATTTGA | 0.177
128 | ATGCCTTA | -0.21
129 | AATCATGT | 0.00747
130 | GGTCCTCA | 0.082
131 | GCCCATGA | -0.222
132 | GCACGCCC | -0.0155
133 | GAGTTTGC | -0.00989
134 | CACTTAAG | 0.137
135 | CTAAGCTC | -0.0514
136 | ACGGCCCT | -0.262
137 | ATGGTGCG | -0.188
138 | CTCAACAG | -0.0499
139 | GCTAAATA | -0.0182
140 | CTATCTTA | 0.108
141 | CAAATGTA | 0.257
142 | CCGGGTGC | -0.0863
143 | CCGACCCG | -0.109
144 | GACGATTA | -0.0644
145 | GGAGTTAC | 0.367
146 | AATCACAC | 0.0234
147 | GAAGACGC | -0.078
148 | CACCCCGG | 0.0471
149 | AGGTTACT | 0.137
150 | CAGCGGAA | 0.0124

Row | Sequence | PBM E-score
151 | CAATATCA | 0.188
152 | GTCAGAAC | -0.175
153 | CACAATCG | -0.17
154 | ACCCGGGA | -0.109
155 | GCGGAGTA | 0.458
156 | CCGCTAAC | 0.0198
157 | GAAACAGC | -0.117
158 | TAGGCGCA | -0.0677
159 | CCATGGCA | -0.095
160 | ACAGAACA | 0.118
161 | ACTCCGCA | 0.473
162 | CCTGCTAC | -0.0632
163 | AATGGGCC | -0.149
164 | ATCACAGC | 0.0636
165 | CCCATCAC | -0.217
166 | CGAGAAGC | 0.0567
167 | ACCGGTCG | -0.114
168 | CTGTCATA | 0.0449
169 | CCCTGATC | -0.347
170 | AGGAGGCG | -0.187
171 | GAGGCACA | -0.0648
172 | CGCGGTTC | -0.0131

Source: the supplement of paper PMC3334620
